Experimental data: patent US20260026499A1 (priority 2022, published 2026)

What was measured:
[1] = tested on: fludioxonil-sensitive Fusarium pseudograminearum (FS); experiment: microbe, parasite or virus in culture; conditions: for EC50: Fusarium pseudograminearum, 72 h; for ATI: ZJS178 as standard reagent, FS strain
Source text: (§1) Test object: fludioxonil-resistant (FR) and fludioxonil-sensitive (FS) Fusarium pseudograminearum, isolated from the field and identified by the laboratory and preserved.
(§2) Test reagents: compound ZJS178 synthesized by Example 1; fludioxonil (provided by Zhejiang Research Institute of Chemical Industry).
(§3) Test method: refer to “Agricultural Industry Standard of the People's Republic of China NY/T 1156.2-2006” mycelial growth rate method. Five doses of each reagent were set according to the active ingredient content. The above-mentioned Fusarium pseudograminearum was inoculated on a PDA medium. When the colony grew to ⅔ of the culture dish, a fungicidal block at the edge of the colony was made by a punch with a diameter of 5 mm. The fungicidal block was transferred to the center of the pre-prepared drug-containing PDA medium using an inoculating needle, and then placed in a 25° C. incubator for 3 days. The diameter in cm of each treated colony was measured with a caliper using a cross method, and the corrected inhibition percentage was calculated. EC50 values for each reagent were then calculated using linear regression analysis between the probability of inhibition values and the log of the series of concentrations, repeated 4 times per treatment. The compound ZJS178 was set as the standard reagent, and the co-toxicity coefficient (CTC) was calculated according to the following formulas.
(§4) A CTC value of less than 80 indicates an antagonistic effect; A CTC value of 80-120 indicates an additive effect; A CTC value of greater than 120 indicates a synergistic effect.

[2] = tested on: fludioxonil-resistant Fusarium pseudograminearum (FR); experiment: microbe, parasite or virus in culture; conditions: for EC50: Fusarium pseudograminearum, 72 h; for ATI: ZJS178 as standard reagent, FR strain
Source text: as §1, §2, §3, §4

Compound	EC50 [1] [µg/mL]	ATI [1]	EC50 [2] [µg/mL]	ATI [2]
N#Cc1c[nH]cc1-c1cccc2c1OC(F)(F)O2 [Fludioxonil (B), 4-(2,2-difluoro-1,3-benzodioxol-4-yl) pyrrole-3-carbonitrile, reference compound]	0.0426	75.82	18	0.21
CCOC(=O)/C(C#N)=C(\N)c1ccc(N(C)CC)cc1 [ZJS178 (A), ethyl 2-cyano-3-amino-3-[4-(N-ethyl-N-methylamino)phenyl]acrylate]	0.0323	100.00	0.038	100.00
